Data reported in PubChem BioAssay AID488969 (Vanderbilt High Throughput Screening Facility, 2010).
In all, about 110,000 compounds were measured (“z-score”: median about -0.1, highest 2% from about 2 on). This is one part of the list. Activity calls are given as the source filed them.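 The calls were made as follows: active = z-score in the third read window above 3 or below -3; inactive = the rest.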

Target: Metabotropic glutamate receptor 8 (Rattus norvegicus) (UniProt P70579)
Assay: rat mGluR8 modulators via GIRK flux, primary screen, cell-based, thallium flux, HTS (AID 488969)
Settings: HEK293 rat mGluR8, GIRK (G protein-gated inwardly rectifying potassium channel) thallium flux, FluoZin2; at 10 µM; stronger effect = higher value; submaximal glutamate (EC20) added with thallium

Sequence of UniProt P70579 (P70579 whole entry, looked up): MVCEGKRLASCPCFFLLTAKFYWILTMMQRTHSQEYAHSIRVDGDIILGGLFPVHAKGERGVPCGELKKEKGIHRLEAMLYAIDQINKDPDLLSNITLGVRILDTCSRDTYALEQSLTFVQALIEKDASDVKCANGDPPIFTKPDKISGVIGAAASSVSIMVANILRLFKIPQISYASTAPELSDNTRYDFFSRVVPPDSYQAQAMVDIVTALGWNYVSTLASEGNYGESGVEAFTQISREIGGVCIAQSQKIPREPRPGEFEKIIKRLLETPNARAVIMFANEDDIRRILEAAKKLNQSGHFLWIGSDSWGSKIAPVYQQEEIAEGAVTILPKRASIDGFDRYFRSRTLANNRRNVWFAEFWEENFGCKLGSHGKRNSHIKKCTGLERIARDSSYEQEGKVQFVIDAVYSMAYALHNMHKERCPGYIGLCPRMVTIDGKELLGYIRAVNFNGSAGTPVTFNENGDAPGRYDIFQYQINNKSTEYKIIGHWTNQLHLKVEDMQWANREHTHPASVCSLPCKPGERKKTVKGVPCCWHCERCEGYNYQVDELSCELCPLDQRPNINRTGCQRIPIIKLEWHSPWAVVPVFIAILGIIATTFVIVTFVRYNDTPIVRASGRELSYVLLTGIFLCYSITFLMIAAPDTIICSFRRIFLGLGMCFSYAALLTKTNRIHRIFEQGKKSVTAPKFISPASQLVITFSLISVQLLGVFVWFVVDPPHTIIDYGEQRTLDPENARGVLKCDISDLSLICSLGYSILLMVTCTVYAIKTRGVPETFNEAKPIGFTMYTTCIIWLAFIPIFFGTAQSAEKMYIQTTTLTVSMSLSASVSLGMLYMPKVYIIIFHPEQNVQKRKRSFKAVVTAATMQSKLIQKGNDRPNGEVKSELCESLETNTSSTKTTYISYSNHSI

SMILES | z-score
COc1ccc(OC(=O)c2cccc([N+](=O)[O-])c2)c(C(=O)/C=C/c2cccs2)c1 | -0.269
N#Cc1c(NC(=O)c2ccccc2Cl)n(Cc2ccccc2)c2nc3ccccc3nc12 | -2.53
O=C(Nc1ccncc1)c1cccs1 | 0.607
O=S(=O)(c1cccc(S(=O)(=O)N2CCN(c3ncccn3)CC2)c1)N1CCOCC1 | 1.56
CC(=O)Nc1ccc(S(=O)(=O)N2CCSC2c2ccccc2)cc1 (stereo not given) | 0.292
COc1cc(CNCCc2ccc(S(N)(=O)=O)cc2)ccc1OCC(=O)NC(C)(C)C | -0.102
COC(=O)c1cccc(NC(=O)c2cnoc2C)c1 | -0.126
CCN1CCN(C(=S)NCc2ccc(C)cc2)CC1 | 0.0391
COc1ccc(-c2ccc(/C=N/N3C(=O)C4C5C=CC(C6CC56)C4C3=O)o2)c([N+](=O)[O-])c1 (stereo not given) | -0.227
CN(C)C(=O)c1cc([N+](=O)[O-])cc([N+](=O)[O-])c1N(C)C | -0.121
C[C@@]12CC(=O)NC1N(C(=O)c1cccc(C(F)(F)F)c1)C(c1ccccc1O)C2 (stereo not given in full) | 0.152
CCCNS(=O)(=O)c1cccn1-c1ncc(C(F)(F)F)cc1Cl | 0.246
COc1cc(S(=O)(=O)N2CCOCC2)ccc1NC(=O)COC(=O)c1ccccn1 | 0.0577
O=C(CCSc1nnc(-c2ccccc2)o1)N1CCOCC1 | -0.088
Cc1cc(C)n2nc(SCC(=O)N(C)C)nc2n1 | 0.0531
COc1ccccc1C1=NOC(COC(=O)c2ccc3ccccc3n2)C1 (stereo not given) | -0.167
c1ccc(Cc2nn3c(C4COc5ccccc5O4)nnc3s2)cc1 (stereo not given) | -0.0053
O=C(NCc1ccc2c(c1)OCO2)C1CCN(Cc2cnn(-c3ccccc3)c2-n2cccc2)CC1 | active: 3.14
COc1ccc(C(=O)Nc2ccccc2C(=O)N/N=C/c2ccc(O)c(OC)c2)cc1 | -0.475
C/C(=C\C(=O)c1ccc(C)cc1)Nc1cccc(O)c1 | -0.571
COc1ccc(-c2nnc(COc3ccc4ccccc4c3)o2)cc1OC | -0.216
CCOc1ccccc1CNC(=O)C1CCN(c2nc3ccccc3o2)CC1 | 0.183

SMILES | z-score
Cn1cnnc1SCC(=O)Nc1ccc2nc(SCc3ccccc3Cl)sc2c1 | 0.33
CCc1c(C)nc2cc(C)[nH]n2c1=O | -0.428
COC(=O)C1=C(C)OC(N)=C(C#N)C1c1ccsc1 (stereo not given) | 1.04
CC1=C(C(=O)OCC(C)C)[C@]23C(=O)c4ccccc4[C@@]2(O1)OC(N)=C3C#N | 0.462
COCc1n[nH]c(=S)n1-c1cccc2ccccc12 | 0.945
Cc1ccc(C(=O)Nc2ccc(Cl)cc2C(F)(F)F)c(Cl)c1 | -0.278
CCCc1nn(-c2ccccc2)c2c1C(c1cccs1)C(C#N)=C(N)O2 (stereo not given) | 0.819
CCn1nc(C(=O)OCC(=O)c2ccc3c(c2)OCCO3)c2ccccc2c1=O | -0.721
CCOC(=O)CSc1ncnc2c1cnn2-c1ccccc1 | -1.37
CCn1cc(SCC(=O)N2CCc3ccccc32)c2ccccc21 | -0.153
CCOC(=O)c1ccccc1NC(=O)COC(=O)C1=COCCO1 | -0.168
c1csc(-c2nnc(NC3CCCCC3)c3ccccc23)c1 | -1.27
Cc1ccc(-c2nn(C(C)(C)C)c3ncnc(N)c23)cc1 | -0.312
Cc1cccc(C(=O)N(NC(=O)Oc2ccccc2)C(C)(C)C)c1 | -0.264
Cn1c(=O)cc(OCC(=O)NCCCN2CCN(Cc3ccccc3)CC2)c2ccccc21 | -0.447
O=C(O)c1cccc(CN2C(=O)CSC2=O)c1 | 0.375
N#Cc1c(-n2cccc2)cccc1-n1cccc1 | 0.128
c1cncc(-c2nc(NCc3ccco3)c3ccccc3n2)c1 | -2.19
O=C(c1ccccc1)N1CCN(C(=O)c2ccccc2)CC1 | 0.281
CC(C)Cn1c(/C=C/c2ccccc2)nc2ccccc21 | 0.73
CN=C1S/C(=C\c2cccn2-c2cccc(Br)c2)C(=O)N1C | -0.385
CC(C)(C)SCCNC(=O)CSCc1ccc([N+](=O)[O-])cc1 | -0.0767

SMILES | z-score
CO/N=C(/CNC(=O)c1cccc(Cl)c1)c1ccc(Cl)cc1 | 0.219
Cn1c(C(=O)NCCCN2CCCCC2)cc2sccc21 | 0.351
Cc1cc2cc(C(c3nnnn3Cc3ccco3)N3CCCCC3)c(=O)[nH]c2cc1C (stereo not given) | -0.431
CC(C)C(=O)c1cc2c(cc1NC(=O)Nc1cccc3ccccc13)OCCO2 | -0.506
CCC(=O)Nc1cnc(NC(=O)c2cccc(F)c2)cc1C | 0.0528
COc1cccc(C(=O)O/N=C/c2ccc(Sc3ccc(C)cc3)nc2)c1 | -0.182
Cc1ccc(S(=O)(=O)N(CC(O)CN2CCOCC2)c2cc(Cl)ccc2Cl)cc1 (stereo not given) | -1.77
Cc1nn(Cc2ccccc2)c(C)c1C(=O)OCC(=O)c1cc(C)n(CC(F)(F)F)c1C | -0.197
Cc1scc(C(=O)NNC(=S)NCc2ccccc2)c1C | 0.0158
CCNc1nc(Oc2ccc(C(=O)OC)cc2)nc(N(C)C)n1 | 0.609
CCOC(=O)c1c(C)nc(-c2ccccc2)nc1NC(=O)CC | 1.02
CN1CCN(C(=O)c2cc(Cl)ccc2Cl)CC1 | -0.158
O=C1c2cccnc2C(=O)N1CO | 1.18
COC(=O)CSc1nnnn1-c1ccccc1 | 1.26
C/C=C/C(=O)OCC(=O)Nc1ccc(OC)c(Cl)c1 | -0.123
Cn1ncc(Cl)c1C(=O)Nc1cccc(Cl)c1 | 0.16
COc1ccc(NC(=O)c2cc3c(s2)CCC3)cc1S(=O)(=O)N1CCOCC1 | 0.294
C(=C\c1ccccc1)/CN1CCN(c2ncnc3c2oc2ccccc23)CC1 | 0.364
CC(C)(C)n1ncc2c(=O)n(CC(=O)N3CCCc4ccccc43)cnc21 | -0.524
O=C(CCCN1C(=O)c2ccccc2C1=O)NCc1ccco1 | -0.437
CC(C)(CO)Nc1nc(N2CCCC2)nc(N2CCCC2)n1 | 2.09
Cc1ccc(NC(=O)c2sccc2C)cc1[N+](=O)[O-] | -0.17

SMILES | z-score
Cc1cc(C)c(C)c(S(=O)(=O)N2CCN(CC(=O)c3c(N)n(Cc4ccccc4)c(=O)n(C)c3=O)CC2)c1C | -0.0871
COc1ccc(-c2nnn(CC(=O)N(Cc3cccs3)C(C)C(=O)NC3CCCC3)n2)cc1OC (stereo not given) | -0.384
O=C(Cc1ccc(-n2c(=O)c3sccc3n(Cc3ccc(F)cc3)c2=O)cc1)NCc1ccco1 | -0.64
CC(=NCCCNC1CCCCC1)C1=C(O)CC(C)(C)CC1=O | -0.0935
NS(=O)(=O)c1ccc(CCNC(=O)NC2(C(F)(F)F)Oc3ccccc3O2)cc1 | -0.179
COc1ccc(Cl)cc1NC(=O)c1cccc(NC(=O)CCC(=O)O)c1 | -0.178
CCN1CCC(=NNC(=O)CC23CC4CC(CC(C4)C2)C3)CC1 | 0.244
O=[N+]([O-])c1ccccc1NCc1ccc(Cl)cc1 | 0.0358
COc1ccc(C(=O)COC(=O)[C@H](C)Nc2ccc(C(F)(F)F)cc2[N+](=O)[O-])c(OC)c1 | 0.408
CCOC(=O)COc1ccc(S(=O)(=O)N2CCN(c3ccccc3F)CC2)cc1 | -0.0629
CCOC(=O)c1ccc(S(=O)(=O)N2CCN(C(=O)CSc3nc4ccccc4o3)CC2)cc1 | -0.417
O=C(NCCN1C(=O)C2C3C=CC(C3)C2C1=O)Nc1ccccc1 (stereo not given) | 0.165
Cc1cc(C(=O)N/N=C/C=C/c2ccccc2)c(C)o1 | -0.263
Cc1ccc(C(C)C)c(OCC(=O)Nc2ccccc2N2CCN(C)CC2)c1 | 0.145
CC(=O)NC(Cc1ccccc1)C(=O)O (stereo not given) | -0.133
COc1cccc(C2C(C(=O)c3ccc(C)o3)=C(O)C(=O)N2CCCN(C)C)c1 (stereo not given) | -0.00888
CN1CCC(N(C)C(=O)c2ccccc2Nc2ccc(SC(F)F)cc2)CC1 | -0.436
CC(C)C(=O)Nc1cccc(C(=O)NCc2ccc(S(N)(=O)=O)cc2)c1 | -0.267
CCOC(=O)C1CCN(C2CC(=O)N(c3ccc(OCC)cc3)C2=O)CC1 (stereo not given) | -0.083
O=c1oc2ccccc2nc1/C=C(O)/C=C/c1ccc(F)cc1 | -0.0634
CCc1nc2ccccc2n1CC(=O)N1CCN(S(=O)(=O)c2cccc(C(F)(F)F)c2)CC1 | -0.0276
COC(=O)c1nnn(CC(=O)Nc2cc(Cl)ccc2C)c1C(=O)OC | -0.484

SMILES | z-score
CC1S/C(=N/N=C/c2ccco2)NC1=O (stereo not given) | -0.0698
CCN=C1S/C(=C\c2ccc(OC)c(OCC)c2)C(=O)N1CC | 0.509
CC(=O)c1ccc(NC(=O)N[C@@H](CC(C)C)C(=O)O)cc1 | 0.0309
O=C(Nc1cccc(Cl)c1)OCc1cnc(Cl)s1 | -0.0303
O=C(CCN1CCc2ccccc2C(O)(c2ccccc2)C1)c1ccc2c(c1)OCCO2 (stereo not given) | 0.00375
Cc1cc(C)c(NC(=O)C(C)Sc2nnc(-c3ccco3)n2-c2ccccc2)c(C)c1 (stereo not given) | -0.439
CC1(C)Cc2c(C#N)c(SCc3ccccc3)nc(N3CCOCC3)c2CO1 | 0.00848
O=C(CSc1ncn[nH]1)Nc1ccc(S(=O)(=O)N2CCCC2)cc1 | 0.00256
CCOc1ccccc1C1C(C#N)=C(N)Oc2cc(N)ccc21 (stereo not given) | -1.11
CC(=O)c1c(C)nc(-c2ccc(Cl)cc2Cl)n1O | 1.47
CCC(c1nnnn1Cc1ccc2c(c1)OCO2)N1CCN(c2ccccc2)CC1 (stereo not given) | -0.0847
COc1ccc(N2CC(NC(=O)NC(C)(C)C)CC2=O)cc1 (stereo not given) | -0.154
Cc1ccc(S(=O)(=O)N2CCCCC2C(=O)NCc2ccco2)cc1 (stereo not given) | 0.161
CC(=O)NC(CCS(C)(=O)=O)C(=O)Nc1c(F)cccc1F (stereo not given) | 0.442
O=C(c1ccc(S(=O)(=O)c2cccc(Cl)c2)c([N+](=O)[O-])c1)N1CCN(Cc2ccccc2)CC1 | 0.264
CCc1ccc(-c2csc(NC(=O)Oc3ccccc3)n2)cc1 | -0.119
CC1(C)CC(=O)c2c(nn(-c3ccccc3)c2-c2ccncc2)C1 | -0.129
Cn1c(=O)n(C)c2cc(NC(=O)CCl)ccc21 | 0.155
CC(=NC1CCN(Cc2ccccc2)CC1)c1c(O)[nH]c(=O)[nH]c1=O | -0.0981
Cc1ccccc1-c1nc(Cc2ccccc2)no1 | -0.00202
O=C(NCCCCc1ccccc1)C1CC(c2ccccc2[N+](=O)[O-])=NO1 (stereo not given) | -0.227
CCc1cccc(CC)c1NC(=O)COC(=O)CC1c2ccccc2CCN1S(=O)(=O)c1ccccc1 (stereo not given) | 0.484
